# In all, about 39,000 compounds went through this assay and about 220 (0.56%) showed activity. Some of the results follow.
# Tested on: Escherichia coli K-12 BW25113
# Assay: relative growth (OD600 normalised to plate interquartile mean) (fraction); higher = less growth inhibition, active = 0.2 or less
# Settings: 50 µM; LB; incubation time: overnight (16-24 h)
# 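Note: static incubation at 37 °C against the wild-type strain, values averaged over two biological replicates.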
row,Structure (SMILES),relative growth
1,C[C@@H]1CCCCO[C@H](CN(C)C(=O)Nc2ccccc2)[C@H](C)CN([C@H](C)CO)C(=O)c2cc(NC(=O)C3CCCCC3)ccc2O1,inactive: 1.03
2,COc1ccc(NC(=O)N(C)C[C@H]2OCCCC[C@@H](C)Oc3ccc(NS(=O)(=O)c4ccc(Cl)cc4)cc3C(=O)N([C@H](C)CO)C[C@@H]2C)cc1,inactive: 1.01
3,C[C@@H]1CCCCO[C@H](CN(C)C(=O)Nc2ccc3c(c2)OCO3)[C@H](C)CN([C@@H](C)CO)C(=O)c2cc(NC(=O)C3CCCCC3)ccc2O1,inactive: 1.01
4,C[C@H]1CCCCO[C@H](CN(C)C(=O)CCCN(C)C)[C@@H](C)CN([C@@H](C)CO)C(=O)c2cc(NC(=O)Nc3ccc(C(F)(F)F)cc3)ccc2O1,inactive: 0.954
5,C[C@H](CCOc1cccc(CC(=O)O)c1)N(Cc1cccc(C(F)(F)F)c1Cl)CC(c1ccccc1)c1ccccc1,inactive: 0.954
6,C[C@@H]1CCCCO[C@H](CN(C)C(=O)Nc2ccc(F)cc2)[C@H](C)CN([C@@H](C)CO)C(=O)c2cc(NS(=O)(=O)c3ccc(Cl)cc3)ccc2O1,inactive: 1.02
7,CCNC(=O)C[C@H]1CC[C@@H](NC(=O)C2CCOCC2)[C@@H](CO)O1,inactive: 0.99
8,CCN1C[C@H](C(=O)N2CCN(c3ncccc3C(N)=O)CC2)CC1=O,inactive: 0.976
9,Nc1nnnn1/N=C\C=C\c1ccccc1,inactive: 1.01
10,C[C@H](CO)N1C[C@H](C)[C@H](CN(C)Cc2cccc(C(F)(F)F)c2)Oc2ncc(-c3cc4ccccc4o3)cc2C1=O,inactive: 0.984
11,C[C@@H]1CCCCO[C@H](CN(C)C(=O)Nc2cccc3ccccc23)[C@@H](C)CN([C@@H](C)CO)C(=O)c2cc(NC(=O)Nc3ccc(C(F)(F)F)cc3)ccc2O1,inactive: 1.04
12,CCCc1cc(C(N)=S)ccn1,inactive: 1.09
13,C[C@@H]1CN([C@@H](C)CO)C(=O)Cc2cc(NC(=O)CCC(F)(F)F)ccc2O[C@@H]1CN(C)Cc1ccc(Cl)c(Cl)c1,inactive: 1
14,Cc1noc(C)c1S(=O)(=O)N(C)C[C@H]1OCCCC[C@H](C)Oc2ccc(NS(=O)(=O)c3cn(C)cn3)cc2C(=O)N([C@@H](C)CO)C[C@@H]1C,inactive: 1
15,COc1ccc(NC(=O)N(C)C[C@H]2Oc3ccc(NC(=O)Cn4cnnn4)cc3CC(=O)N([C@H](C)CO)C[C@H]2C)cc1,inactive: 0.985
16,C[C@H](O)C#Cc1cnc2c(c1)C(=O)N([C@H](C)CO)C[C@H](C)[C@@H](CN(C)C(=O)Nc1ccc(C(F)(F)F)cc1)O2,inactive: 0.972
17,COc1ccc2c3c(n(c2c1)C)[C@@H](CO)N(Cc1cc(cc(c1)OC)OC)C[C@]13CN(C1)C(=O)NC(C)C,inactive: 1.02
18,C[C@H](CO)N1C[C@H](C)[C@@H](CN(C)S(=O)(=O)c2cn(C)cn2)OCCCC[C@H](C)Oc2ccc(NC(=O)c3ccncc3)cc2C1=O,inactive: 0.994
19,Cc1cc(C(=O)Nc2cccc3c2O[C@H](CN(C)Cc2ccccc2)[C@H](C)CN([C@H](C)CO)C3=O)n(C)n1,inactive: 0.999

row,Structure (SMILES),relative growth
1,COc1ccc(CCN(C)CCCOc2ccc(S(=O)(=O)c3c(C(C)C)cn4ccccc34)cc2)cc1OC,inactive: 1.05
2,COc1ccc(CN(C)C[C@H]2OCCCC[C@@H](C)Oc3ccc(NC(=O)Nc4ccc(C(F)(F)F)cc4)cc3C(=O)N([C@H](C)CO)C[C@@H]2C)cc1,inactive: 1.02
3,C[C@@H]1CCCCO[C@@H](CN(C)C(=O)Nc2cccc3ccccc23)[C@@H](C)CN([C@H](C)CO)C(=O)c2cc(NC(=O)Nc3cccc4ccccc34)ccc2O1,inactive: 1.01
4,C[C@@H]1CN([C@H](C)CO)C(=O)c2cc(NC(=O)Cn3cnnn3)ccc2O[C@@H]1CN(C)C(=O)NC1CCCCC1,inactive: 1.01
5,COCC#Cc1cnc2c(c1)C(=O)N([C@H](C)CO)C[C@@H](C)[C@@H](CN(C)S(=O)(=O)c1ccccc1)O2,inactive: 0.99
6,C[C@@H]1CN([C@@H](C)CO)C(=O)c2cc(NC(=O)Nc3ccc4c(c3)OCO4)ccc2O[C@@H](C)CCCCO[C@@H]1CN(C)C(=O)C1CCCCC1,inactive: 1.01
7,C[C@@H]1CN([C@H](C)CO)C(=O)c2cc(NC(=O)C3CC3)ccc2O[C@@H]1CN(C)S(=O)(=O)c1cn(C)cn1,inactive: 0.991
8,O=C(Nc1ccc2c(c1)[C@H]1C[C@H](CC(=O)N3CCc4ccccc4C3)O[C@H](CO)[C@H]1O2)C1CCOCC1,inactive: 0.999
9,COc1ccc(NC(=O)N(C)C[C@@H]2OCCCC[C@@H](C)Oc3ccc(NC(=O)Nc4ccccc4)cc3C(=O)N([C@H](C)CO)C[C@H]2C)cc1,inactive: 1.03
10,COc1ccccc1S(=O)(=O)N1C[C@H](O)COC[C@H]2O[C@H](CC(=O)O)CC[C@@H]21,inactive: 0.937
11,C[C@@H]1CCCCO[C@H](CN(C)Cc2ccc(Cl)c(Cl)c2)[C@@H](C)CN([C@H](C)CO)C(=O)c2cc(N(C)C)ccc2O1,inactive: 1.02
12,C[C@H](CO)N1C[C@H](C)[C@@H](CN(C)C(=O)CCC(F)(F)F)OCCCC[C@H](C)Oc2ccc(NC(=O)Nc3ccc4c(c3)OCO4)cc2C1=O,inactive: 1.01
13,COc1ccccc1CNC(=O)C[C@H]1C[C@H]2c3cc(NS(=O)(=O)c4ccc(F)cc4)ccc3O[C@H]2[C@@H](CO)O1,inactive: 1.05
14,C[C@H](CO)N1C[C@H](C)[C@@H](CN(C)Cc2ccc(C(=O)Nc3ccccc3N)cc2)Oc2c(NC(=O)Nc3ccccc3)cccc2C1=O,inactive: 1
15,COc1ccc(-c2cc(=O)c3ccccc3o2)cc1,inactive: 1.03
16,COc1ccc(S(=O)(=O)Nc2ccc3c(c2)C(=O)N([C@@H](C)CO)C[C@@H](C)[C@@H](CN(C)C(=O)Nc2cccc4ccccc24)O3)cc1,inactive: 1.01
17,CO[C@H]1CN(C)C(=O)c2cc(NS(=O)(=O)c3cn(C)cn3)ccc2OC[C@H](C)N(CC2CC2)C[C@@H]1C,inactive: 1.02
18,C[C@@H]1CN([C@@H](C)CO)C(=O)c2cc(C#CC3CCCCC3)cnc2O[C@H]1CN(C)C(=O)c1ccncc1,inactive: 0.996
19,C[C@@H]1CCCCO[C@@H](CN(C)C(=O)Nc2ccc3c(c2)OCO3)[C@@H](C)CN([C@H](C)CO)C(=O)c2cc(NC(=O)CCCCCC(=O)Nc3ccccc3N)ccc2O1,inactive: 0.96

row,Structure (SMILES),relative growth
1,COc1cccc(-n2cc([C@@H](C)N)cn2)c1,inactive: 1.02
2,C[C@@H]1CCCCO[C@@H](CN(C)Cc2ccncc2)[C@@H](C)CN([C@H](C)CO)C(=O)c2cc(NC(=O)Nc3cccc4ccccc34)ccc2O1,inactive: 1.05
3,C[C@@H]1CCCCO[C@H](CN(C)C(=O)Nc2ccc(F)cc2)[C@H](C)CN([C@H](C)CO)C(=O)c2cc(NC(=O)Nc3ccc(F)cc3)ccc2O1,inactive: 0.984
4,CC(C)(C)[S@](=O)N1Cc2cc(C(=O)N3CCCCC3)nc(-c3cccc(-c4ccccc4F)c3)c2[C@@H]1CCO,inactive: 1
5,COCCOC(=O)N1C(=O)[C@@]2(c3cc(C#Cc4ccc(OC)cc4)ccc31)[C@H](C(=O)N1CCc3cc(OC)c(OC)cc3C1)[C@H]1C(=O)O[C@H](c3ccccc3)[C@H](c3ccccc3)N1[C@@H]2c1ccccc1OCCO,inactive: 1.07
6,Cc1ccc(S(=O)(=O)Nc2ccc3c(c2)CC(=O)N([C@@H](C)CO)C[C@H](C)[C@@H](CN(C)S(=O)(=O)c2cn(C)cn2)O3)cc1,inactive: 1.01
7,COc1ccc(S(=O)(=O)Nc2cccc3c2O[C@@H](CN(C)Cc2ccncc2)[C@H](C)CN([C@@H](C)CO)C3=O)cc1,inactive: 0.983
8,COc1ccc(S(=O)(=O)Nc2ccc3c(c2)C(=O)N([C@@H](C)CO)C[C@H](C)[C@H](CN(C)C(=O)NC(C)C)O3)cc1,inactive: 0.988
9,O=C(C[C@H]1CC[C@@H]2[C@H](COC[C@@H](O)CN2S(=O)(=O)c2cccc(F)c2)O1)NCCCN1CCOCC1,inactive: 0.966
10,CC(C)NC(=O)N[C@@H]1C=C[C@@H](CC(=O)NCCN2CCCC2)O[C@@H]1CO,inactive: 1.01
11,C[C@@H]1CN([C@@H](C)CO)C(=O)c2cc(NS(=O)(=O)c3ccccc3)ccc2O[C@@H](C)CCCCO[C@@H]1CN(C)Cc1ccc(C(=O)O)cc1,inactive: 1.02
12,O=C(Nc1ccc(C(F)(F)F)cc1)Nc1ccc2c(c1)[C@@H]1C[C@H](CC(=O)N3CCc4ccccc4C3)O[C@H](CO)[C@@H]1O2,inactive: 1.04
13,C[C@@H]1CN([C@H](C)CO)C(=O)Cc2cc(NS(=O)(=O)c3ccc(F)cc3)ccc2O[C@@H]1CN(C)S(C)(=O)=O,inactive: 0.995
14,Cc1noc(C)c1S(=O)(=O)N(C)C[C@@H]1OCc2cn(nn2)CCCC(=O)N([C@H](C)CO)C[C@@H]1C,inactive: 1.01
15,C[C@H](CO)N1C[C@H](C)[C@@H](CN(C)S(C)(=O)=O)Oc2ccc(NC(=O)Nc3ccc4c(c3)OCO4)cc2C1=O,inactive: 0.981
16,COc1cccc(C#Cc2ccc3c(c2)O[C@H](CN(C)C(C)=O)[C@@H](C)CN([C@@H](C)CO)S3(=O)=O)c1,inactive: 1.01
17,O=c1[nH]/c(=C/c2ccco2)c(=O)[nH]/c1=C\c1ccco1,inactive: 0.829
18,Cc1ccc(S(=O)(=O)N(C)C[C@@H]2OCCCC[C@@H](C)Oc3ccc(NC(=O)Nc4ccccc4)cc3C(=O)N([C@@H](C)CO)C[C@@H]2C)cc1,inactive: 1.02
19,C[C@@H]1CN([C@H](C)CO)C(=O)Cc2cc(NC(=O)Nc3ccc4c(c3)OCO4)ccc2O[C@H]1CN(C)C(=O)Nc1ccc(C(F)(F)F)cc1,inactive: 0.984
